# Some of the results follow.
# B1: Ficolin B (Rattus norvegicus), P57756 (protein)
# chain: MVLGSAALFVLSLCVTELTLHAADTCPEVKVLDLEGSNKLTILQGCPGLPGALGPKGEAGAKGDRGESGLPGHPGKAGPTGPKGDRGEKGVRGEKGDTGPSQSCATGPRTCKELLTRGYFLTGWYTIYLPDCRPLTVLCDMDTDGGGWTVFQRRIDGTVDFFRDWTSYKQGFGSQLGEFWLGNDNIHALTTQGTNELRVDLADFDGNHDFAKYSSFQIQGEAEKYKLILGNFLGGGAGDSLTSQNNMLFSTKDQDNDQGSSNCAVRYHGAWWYSDCHTSNLNGLYLRGLHKSYANGVNWKSWKGYNYSYKVSEMKVRLI
# Assays:
# Assay in all cases: glycan array binding signal (z-score within array); higher = stronger binding
# Details in all cases: glycan notation: IUPAC condensed, linker removed
# [1] = biological target: Gal3S6S(b1-4)GlcNAc6S
# Method in brief: (§1)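 Glycan array binding is given as a within-array Z-score, which can be read as non-binding when negative. The arrays, 3228 of them, came from the Consortium for Functional Glycomics database and were retained only where the protein sequence was available. Z-scores were averaged across arrays of the same protein sequence at different concentrations or buffers and across linkers.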
# [2] = biological target: Gal4S(b1-4)GlcNAc
# Method in brief: as §1
# [3] = biological target: Gal4S6S(b1-4)GlcNAc
# Method in brief: as §1
# [4] = biological target: Gal6S(b1-4)Glc
# Method in brief: as §1
# [5] = biological target: Gal6S(b1-4)Glc6S
# Method in brief: as §1
# [6] = biological target: Gal6S(b1-4)GlcNAc
# Method in brief: as §1
# [7] = biological target: Gal6S(b1-4)GlcNAc6S
# Method in brief: as §1
# [8] = biological target: GalNAc(a1-3)Gal
# Method in brief: as §1
# [9] = biological target: GalNAc(a1-3)GalNAc
# Method in brief: as §1
# [10] = biological target: GalNAc(b1-3)Gal
# Method in brief: as §1
# [11] = biological target: GalNAc(b1-3)Gal(a1-4)Gal(b1-4)GlcNAc
# Method in brief: as §1
# [12] = biological target: GalNAc(b1-3)Gal(a1-4)Gal(b1-4)GlcNAc(b1-3)Gal(b1-4)Glc
# Method in brief: as §1
# [13] = biological target: GalNAc(b1-3)GalNAc
# Method in brief: as §1
# [14] = biological target: GalNAc(b1-4)GlcNAc
# Method in brief: as §1
# [15] = biological target: GalNAc(b1-4)GlcNAc(b1-2)Man(a1-3)[GalNAc(b1-4)GlcNAc(b1-2)Man(a1-6)]Man(b1-4)GlcNAc(b1-4)GlcNAc
# Method in brief: as §1
# [16] = biological target: Glc(a1-4)Glc
# Method in brief: as §1
# [17] = biological target: Glc(a1-6)Glc(a1-6)Glc
# Method in brief: as §1
# [18] = biological target: Glc(b1-4)Glc
# Method in brief: as §1
# [19] = biological target: Glc(b1-6)Glc
# Method in brief: as §1
# [20] = biological target: GlcA(b1-3)Gal
# Method in brief: as §1
# [21] = biological target: GlcA(b1-3)GlcNAc
# Method in brief: as §1
# [22] = biological target: GlcA(b1-6)Gal
# Method in brief: as §1
# [23] = biological target: GlcNAc(a1-3)Gal(b1-4)GlcNAc
# Method in brief: as §1
# [24] = biological target: GlcNAc(a1-4)Gal(b1-3)GlcNAc
# Method in brief: as §1
# [25] = biological target: GlcNAc(a1-4)Gal(b1-4)GalNAc
# Method in brief: as §1
# [26] = biological target: GlcNAc(a1-4)Gal(b1-4)GlcNAc
# Method in brief: as §1
# [27] = biological target: GlcNAc(a1-4)Gal(b1-4)GlcNAc(b1-3)Gal(b1-4)Glc
# Method in brief: as §1
# [28] = biological target: GlcNAc(a1-4)Gal(b1-4)GlcNAc(b1-3)Gal(b1-4)GlcNAc
# Method in brief: as §1
# [29] = biological target: GlcNAc(a1-4)Gal(b1-4)GlcNAc(b1-3)Gal(b1-4)GlcNAc(b1-3)Gal(b1-4)GlcNAc
# Method in brief: as §1
# [30] = biological target: GlcNAc(a1-4)Gal(b1-4)GlcNAc(b1-3)Gal(b1-4)[Fuc(a1-3)]GlcNAc(b1-3)Gal(b1-4)[Fuc(a1-3)]GlcNAc
# Method in brief: as §1
# [31] = biological target: GlcNAc(a1-6)Gal(b1-4)GlcNAc
# Method in brief: as §1
# [32] = biological target: GlcNAc(b1-2)Gal(b1-3)GalNAc
# Method in brief: as §1
# [33] = biological target: GlcNAc(b1-2)Man(a1-3)[GlcNAc(b1-2)Man(a1-6)]Man(b1-4)GlcNAc(b1-4)GlcNAc
# Method in brief: as §1
# [34] = biological target: GlcNAc(b1-2)Man(a1-3)[GlcNAc(b1-2)Man(a1-6)]Man(b1-4)GlcNAc(b1-4)[Fuc(a1-6)]GlcNAc
# Method in brief: as §1
# [35] = biological target: GlcNAc(b1-3)Gal
# Method in brief: as §1
# [36] = biological target: GlcNAc(b1-3)Gal(b1-3)GalNAc
# Method in brief: as §1
# [37] = biological target: GlcNAc(b1-3)Gal(b1-4)Glc
# Method in brief: as §1
binder,measurement,setting,value
B1,glycan array binding signal (z-score),[1],-0.225
same,glycan array binding signal (z-score),[2],-0.21
same,glycan array binding signal (z-score),[3],-0.063
same,glycan array binding signal (z-score),[4],-0.185
same,glycan array binding signal (z-score),[5],-0.115
same,glycan array binding signal (z-score),[6],-0.183
same,glycan array binding signal (z-score),[7],-0.185
same,glycan array binding signal (z-score),[8],-0.008
same,glycan array binding signal (z-score),[9],-0.197
same,glycan array binding signal (z-score),[10],-0.192
same,glycan array binding signal (z-score),[11],-0.2
same,glycan array binding signal (z-score),[12],-0.236
same,glycan array binding signal (z-score),[13],-0.048
same,glycan array binding signal (z-score),[14],-0.19
same,glycan array binding signal (z-score),[15],-0.131
same,glycan array binding signal (z-score),[16],-0.148
same,glycan array binding signal (z-score),[17],-0.204
same,glycan array binding signal (z-score),[18],-0.206
same,glycan array binding signal (z-score),[19],-0.235
same,glycan array binding signal (z-score),[20],-0.029
same,glycan array binding signal (z-score),[21],-0.174
same,glycan array binding signal (z-score),[22],-0.208
same,glycan array binding signal (z-score),[23],-0.127
same,glycan array binding signal (z-score),[24],-0.094
same,glycan array binding signal (z-score),[25],-0.07
same,glycan array binding signal (z-score),[26],-0.141
same,glycan array binding signal (z-score),[27],-0.187
same,glycan array binding signal (z-score),[28],-0.137
same,glycan array binding signal (z-score),[29],-0.23
same,glycan array binding signal (z-score),[30],0.374
same,glycan array binding signal (z-score),[31],0.051
same,glycan array binding signal (z-score),[32],-0.163
same,glycan array binding signal (z-score),[33],-0.195
same,glycan array binding signal (z-score),[34],-0.195
same,glycan array binding signal (z-score),[35],-0.258
same,glycan array binding signal (z-score),[36],-0.206
same,glycan array binding signal (z-score),[37],0.353
